Experimental data published in article PMC10531988.
These are yes or no findings as the source states them, for the method shown. Binding seen in cells or lysates may run through a third protein. Some entries that bind do so weakly or less than the wild type. For part of these data: Tags and fused reporters may be left off the sequences shown.

Sequences of proteins named here, by UniProt entry; tags and fusion partners are left off.
UniProt Q9NXV2: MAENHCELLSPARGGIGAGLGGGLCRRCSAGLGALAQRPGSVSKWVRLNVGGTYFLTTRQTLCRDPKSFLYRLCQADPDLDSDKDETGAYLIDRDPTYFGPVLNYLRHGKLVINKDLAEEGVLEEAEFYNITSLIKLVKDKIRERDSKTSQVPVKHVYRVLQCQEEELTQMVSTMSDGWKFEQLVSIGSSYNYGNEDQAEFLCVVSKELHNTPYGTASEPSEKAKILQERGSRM
UniProt Q9BSF8: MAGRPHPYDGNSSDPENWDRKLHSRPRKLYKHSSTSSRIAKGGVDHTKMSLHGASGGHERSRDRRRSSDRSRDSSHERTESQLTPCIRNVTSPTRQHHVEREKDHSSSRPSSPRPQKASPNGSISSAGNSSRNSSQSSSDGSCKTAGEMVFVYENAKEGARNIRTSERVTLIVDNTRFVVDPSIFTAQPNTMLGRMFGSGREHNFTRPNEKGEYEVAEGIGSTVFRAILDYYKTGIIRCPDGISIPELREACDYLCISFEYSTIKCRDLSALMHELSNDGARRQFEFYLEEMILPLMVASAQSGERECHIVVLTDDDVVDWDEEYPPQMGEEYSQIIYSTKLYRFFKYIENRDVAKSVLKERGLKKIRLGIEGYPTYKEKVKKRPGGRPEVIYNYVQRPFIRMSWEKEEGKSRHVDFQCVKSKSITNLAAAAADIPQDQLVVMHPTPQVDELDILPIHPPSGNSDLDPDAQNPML
UniProt Q14681: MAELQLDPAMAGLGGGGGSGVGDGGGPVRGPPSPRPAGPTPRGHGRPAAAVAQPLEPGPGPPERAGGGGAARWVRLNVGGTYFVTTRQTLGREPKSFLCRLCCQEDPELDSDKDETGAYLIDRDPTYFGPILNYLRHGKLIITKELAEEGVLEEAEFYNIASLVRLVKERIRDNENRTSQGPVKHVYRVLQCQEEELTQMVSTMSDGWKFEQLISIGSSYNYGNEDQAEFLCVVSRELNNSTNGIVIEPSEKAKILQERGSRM
UniProt Q9Y597: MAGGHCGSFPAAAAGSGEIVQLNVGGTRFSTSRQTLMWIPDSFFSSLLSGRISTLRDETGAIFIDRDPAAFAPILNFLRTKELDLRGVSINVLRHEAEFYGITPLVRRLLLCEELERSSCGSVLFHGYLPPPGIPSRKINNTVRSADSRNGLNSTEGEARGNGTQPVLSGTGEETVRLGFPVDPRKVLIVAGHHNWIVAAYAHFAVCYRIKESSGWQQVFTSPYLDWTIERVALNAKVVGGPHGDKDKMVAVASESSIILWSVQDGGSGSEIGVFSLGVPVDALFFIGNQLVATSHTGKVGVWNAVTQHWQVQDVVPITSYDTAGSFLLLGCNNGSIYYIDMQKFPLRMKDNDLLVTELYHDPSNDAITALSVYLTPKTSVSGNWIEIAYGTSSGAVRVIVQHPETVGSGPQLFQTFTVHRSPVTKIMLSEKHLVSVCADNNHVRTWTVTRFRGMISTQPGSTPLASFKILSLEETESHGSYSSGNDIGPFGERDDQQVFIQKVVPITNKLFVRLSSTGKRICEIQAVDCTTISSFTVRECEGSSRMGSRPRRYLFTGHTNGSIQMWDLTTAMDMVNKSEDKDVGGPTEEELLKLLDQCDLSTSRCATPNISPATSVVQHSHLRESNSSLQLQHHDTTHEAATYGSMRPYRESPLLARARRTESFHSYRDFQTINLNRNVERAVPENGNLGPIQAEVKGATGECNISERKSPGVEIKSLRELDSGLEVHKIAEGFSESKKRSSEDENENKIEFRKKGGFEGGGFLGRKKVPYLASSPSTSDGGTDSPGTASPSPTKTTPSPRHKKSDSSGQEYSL
UniProt Q8WVF5: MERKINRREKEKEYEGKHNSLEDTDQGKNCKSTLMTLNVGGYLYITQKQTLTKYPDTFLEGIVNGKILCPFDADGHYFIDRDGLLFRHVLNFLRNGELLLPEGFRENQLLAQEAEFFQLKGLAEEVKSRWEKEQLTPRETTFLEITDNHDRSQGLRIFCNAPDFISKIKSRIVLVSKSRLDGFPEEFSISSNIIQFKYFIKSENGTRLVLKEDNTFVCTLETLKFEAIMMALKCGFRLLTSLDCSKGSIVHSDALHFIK
UniProt Q6ZWB6: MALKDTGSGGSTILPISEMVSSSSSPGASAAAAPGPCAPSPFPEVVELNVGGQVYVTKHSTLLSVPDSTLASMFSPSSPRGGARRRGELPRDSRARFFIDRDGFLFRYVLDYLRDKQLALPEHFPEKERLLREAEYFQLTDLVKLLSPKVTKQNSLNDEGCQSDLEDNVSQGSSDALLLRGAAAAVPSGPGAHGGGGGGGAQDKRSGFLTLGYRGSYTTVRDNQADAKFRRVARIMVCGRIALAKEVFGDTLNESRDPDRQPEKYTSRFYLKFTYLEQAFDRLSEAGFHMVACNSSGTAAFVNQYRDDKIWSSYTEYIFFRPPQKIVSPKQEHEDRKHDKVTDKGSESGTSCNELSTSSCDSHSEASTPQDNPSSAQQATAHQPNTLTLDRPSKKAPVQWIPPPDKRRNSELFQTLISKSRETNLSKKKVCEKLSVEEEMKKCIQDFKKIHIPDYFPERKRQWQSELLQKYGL
UniProt Q96CX2: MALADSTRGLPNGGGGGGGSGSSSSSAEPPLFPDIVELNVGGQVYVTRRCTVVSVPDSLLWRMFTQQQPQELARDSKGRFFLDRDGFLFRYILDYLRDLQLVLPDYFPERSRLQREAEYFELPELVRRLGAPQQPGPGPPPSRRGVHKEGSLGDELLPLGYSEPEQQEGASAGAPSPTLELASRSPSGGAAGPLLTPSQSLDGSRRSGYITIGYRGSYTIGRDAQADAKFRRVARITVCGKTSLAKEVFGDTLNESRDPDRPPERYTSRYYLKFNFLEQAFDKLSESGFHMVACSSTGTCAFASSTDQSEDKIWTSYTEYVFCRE
UniProt Q68DU8: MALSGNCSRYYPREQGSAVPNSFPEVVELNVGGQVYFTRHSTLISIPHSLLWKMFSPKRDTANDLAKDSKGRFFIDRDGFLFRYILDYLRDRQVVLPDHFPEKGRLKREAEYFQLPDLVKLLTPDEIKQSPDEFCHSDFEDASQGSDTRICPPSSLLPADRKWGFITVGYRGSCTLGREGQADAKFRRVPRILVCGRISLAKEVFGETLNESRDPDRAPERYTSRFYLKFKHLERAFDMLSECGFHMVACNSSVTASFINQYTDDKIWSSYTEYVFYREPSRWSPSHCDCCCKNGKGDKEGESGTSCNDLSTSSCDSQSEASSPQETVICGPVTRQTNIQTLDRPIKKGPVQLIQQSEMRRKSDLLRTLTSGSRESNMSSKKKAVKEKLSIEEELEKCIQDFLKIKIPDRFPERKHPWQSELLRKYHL
UniProt Q8N5Z5: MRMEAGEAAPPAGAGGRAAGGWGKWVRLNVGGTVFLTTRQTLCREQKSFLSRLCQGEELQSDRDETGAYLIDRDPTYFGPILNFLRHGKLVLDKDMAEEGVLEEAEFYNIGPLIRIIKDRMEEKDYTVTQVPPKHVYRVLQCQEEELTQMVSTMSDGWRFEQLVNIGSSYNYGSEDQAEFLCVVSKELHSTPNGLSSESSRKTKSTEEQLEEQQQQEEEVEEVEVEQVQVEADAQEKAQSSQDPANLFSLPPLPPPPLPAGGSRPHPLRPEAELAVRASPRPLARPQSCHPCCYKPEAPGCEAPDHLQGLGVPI
UniProt Q6PI47: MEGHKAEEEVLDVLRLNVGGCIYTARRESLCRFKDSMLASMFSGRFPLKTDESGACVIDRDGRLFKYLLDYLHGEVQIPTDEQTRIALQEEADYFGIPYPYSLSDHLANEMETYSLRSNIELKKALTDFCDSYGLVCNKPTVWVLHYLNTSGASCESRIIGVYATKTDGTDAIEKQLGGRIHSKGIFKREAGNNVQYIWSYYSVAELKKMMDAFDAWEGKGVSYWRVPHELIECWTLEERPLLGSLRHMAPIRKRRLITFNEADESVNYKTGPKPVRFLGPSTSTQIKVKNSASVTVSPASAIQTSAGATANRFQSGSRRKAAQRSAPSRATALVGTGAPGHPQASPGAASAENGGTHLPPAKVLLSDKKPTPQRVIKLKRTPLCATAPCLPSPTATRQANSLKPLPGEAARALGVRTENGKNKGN
UniProt Q7Z5Y7: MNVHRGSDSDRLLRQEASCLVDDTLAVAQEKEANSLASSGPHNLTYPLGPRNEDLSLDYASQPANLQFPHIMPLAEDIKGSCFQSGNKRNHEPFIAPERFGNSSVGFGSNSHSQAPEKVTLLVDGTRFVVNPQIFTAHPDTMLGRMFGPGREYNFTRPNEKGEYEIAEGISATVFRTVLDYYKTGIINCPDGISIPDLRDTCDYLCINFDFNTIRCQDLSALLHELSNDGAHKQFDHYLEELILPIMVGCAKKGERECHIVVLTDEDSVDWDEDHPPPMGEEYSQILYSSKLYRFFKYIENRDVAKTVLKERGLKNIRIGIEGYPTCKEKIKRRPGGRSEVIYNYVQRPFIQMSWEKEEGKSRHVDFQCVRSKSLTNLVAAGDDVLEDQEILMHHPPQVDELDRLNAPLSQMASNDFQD
UniProt Q8TBC3: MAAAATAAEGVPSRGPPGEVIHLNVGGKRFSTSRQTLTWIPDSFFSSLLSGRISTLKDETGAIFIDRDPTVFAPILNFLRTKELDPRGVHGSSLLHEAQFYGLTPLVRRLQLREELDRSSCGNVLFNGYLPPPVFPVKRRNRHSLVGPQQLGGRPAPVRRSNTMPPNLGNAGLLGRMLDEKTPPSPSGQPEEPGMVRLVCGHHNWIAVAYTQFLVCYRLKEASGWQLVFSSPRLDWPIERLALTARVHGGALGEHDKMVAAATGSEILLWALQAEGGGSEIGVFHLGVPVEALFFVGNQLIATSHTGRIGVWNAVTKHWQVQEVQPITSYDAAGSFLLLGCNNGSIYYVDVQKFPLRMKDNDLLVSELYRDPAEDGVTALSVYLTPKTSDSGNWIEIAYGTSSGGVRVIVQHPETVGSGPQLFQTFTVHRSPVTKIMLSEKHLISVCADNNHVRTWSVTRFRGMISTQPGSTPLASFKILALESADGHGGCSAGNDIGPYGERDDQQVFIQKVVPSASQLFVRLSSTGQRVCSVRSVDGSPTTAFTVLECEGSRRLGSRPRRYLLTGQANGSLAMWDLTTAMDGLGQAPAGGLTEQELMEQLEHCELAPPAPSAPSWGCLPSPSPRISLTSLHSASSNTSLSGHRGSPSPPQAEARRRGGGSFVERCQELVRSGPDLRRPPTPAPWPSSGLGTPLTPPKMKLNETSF

What was measured:
[1] = target: KCTD5-Venus (human) (UniProt Q9NXV2); assay: FRET or BRET; live HEK293 cells co-transfected 1:1 with KCTD-Nluc (donor) and KCTD5-Venus (acceptor); raw BRET ratio 530 nm/460 nm; room temperature; compared with Nluc-Cyto
[2] = target: KCTD5-Venus (human) (UniProt Q9NXV2); assay: co-IP; HEK293 cells co-transfected 1:1; lysate (1% Triton-X, 150 mM NaCl); IP of Venus-tagged KCTD5 or its fragments with anti-GFP antibody and Dynabeads Protein G, 2 h, +4 °C; Western blot with anti-myc antibody
[3] = target: KCTD5-Venus (human) (UniProt Q9NXV2); assay: as above; remark: listed apart in the source

Molecule | binding [1] | binding [2] | further results
BTBD10-Nluc (from UniProt Q9BSF8 1-475) | binds |  | 
KCTD2-Nluc (from UniProt Q14681 1-263) | binds |  | 
KCTD3-Nluc (from UniProt Q9Y597 1-815) | binds |  | 
KCTD3-myc-flag (from UniProt Q9Y597 1-815) |  | binds | 
KCTD4-Nluc (from UniProt Q8WVF5 1-259) | no binding |  | 
KCTD4-myc-flag (from UniProt Q8WVF5 1-259) |  | no binding | 
KCTD5-Nluc (from UniProt Q9NXV2 1-234) | binds |  | 
KCTD8-Nluc (from UniProt Q6ZWB6 1-473) | binds |  | 
KCTD8-myc-flag (from UniProt Q6ZWB6 1-473) |  | binds | 
KCTD12-Nluc (from UniProt Q96CX2 1-325) | no binding |  | 
KCTD16-Nluc (from UniProt Q68DU8 1-428) | binds |  | 
KCTD16-myc-flag (from UniProt Q68DU8 1-428) |  | binds | 
KCTD17-Nluc (from UniProt Q8N5Z5 1-314) | binds |  | 
KCTD13-myc-flag (protein, UniProt Q8WZ19 1-329) MSAEASGPAAAAAPSLEAPKPSGLEPGPAAYGLKPLTPNSKYVKLNVGGSLHYTTLRTLTGQDTMLKAMFSGRVEVLTDAGGWVLIDRSGRHFGTILNYLRDGSVPLPESTRELGELLGEARYYLVQGLIEDCQLALQQKRETLSPLCLIPMVTSPREEQQLLASTSKPVVKLLHNRSNNKYSYTSTSDDNLLKNIELFDKLALRFHGRLLFLKDVLGDEICCWSFYGQGRKIAEVCCTSIVYATEKKQTKVEFPEARIFEETLNILIYETPRGPDPALLEATGGAAGAGGAGRGEDEENREHRVRRIHVRRHITHDERPHGQQIVFKD |  |  | binding [3]: binds
KCTD21-myc-flag (protein, UniProt Q4G0X4 1-260) MSDPITLNVGGKLYTTSLATLTSFPDSMLGAMFSGKMPTKRDSQGNCFIDRDGKVFRYILNFLRTSHLDLPEDFQEMGLLRREADFYQVQPLIEALQEKEVELSKAEKNAMLNITLNQRVQTVHFTVREAPQIYSLSSSSMEVFNANIFSTSCLFLKLLGSKLFYCSNGNLSSITSHLQDPNHLTLDWVANVEGLPEEEYTKQNLKRLWVVPANKQINSFQVFVEEVLKIALSDGFCIDSSHPHALDFMNNKIIRLIRYR |  |  | binding [3]: binds
KCTD21-Nluc (protein, UniProt Q4G0X4 1-260) MSDPITLNVGGKLYTTSLATLTSFPDSMLGAMFSGKMPTKRDSQGNCFIDRDGKVFRYILNFLRTSHLDLPEDFQEMGLLRREADFYQVQPLIEALQEKEVELSKAEKNAMLNITLNQRVQTVHFTVREAPQIYSLSSSSMEVFNANIFSTSCLFLKLLGSKLFYCSNGNLSSITSHLQDPNHLTLDWVANVEGLPEEEYTKQNLKRLWVVPANKQINSFQVFVEEVLKIALSDGFCIDSSHPHALDFMNNKIIRLIRYR | binds |  | 
KCTD9-Nluc (protein, UniProt Q7L273 1-389) MRRVTLFLNGSPKNGKVVAVYGTLSDLLSVASSKLGIKATSVYNGKGGLIDDIALIRDDDVLFVCEGEPFIDPQTDSKPPEGLLGFHTDWLTLNVGGRYFTTTRSTLVNKEPDSMLAHMFKDKGVWGNKQDHRGAFLIDRSPEYFEPILNYLRHGQLIVNDGINLLGVLEEARFFGIDSLIEHLEVAIKNSQPPEDHSPISRKEFVRFLLATPTKSELRCQGLNFSGADLSRLDLRYINFKMANLSRCNLAHANLCCANLERADLSGSVLDCANLQGVKMLCSNAEGASLKLCNFEDPSGLKANLEGANLKGVDMEGSQMTGINLRVATLKNAKLKNCNLRGATLAGTDLENCDLSGCDLQEANLRGSNVKGAIFEEMLTPLHMSQSVR | no binding |  | 
KCTD10-myc-flag (protein, UniProt Q9H3F6 1-313) MEEMSGESVVSSAVPAAATRTTSFKGTSPSSKYVKLNVGGALYYTTMQTLTKQDTMLKAMFSGRMEVLTDSEGWILIDRCGKHFGTILNYLRDGAVPLPESRREIEELLAEAKYYLVQGLVEECQAALQNKDTYEPFCKVPVITSSKEEQKLIATSNKPAVKLLYNRSNNKYSYTSNSDDNMLKNIELFDKLSLRFNGRVLFIKDVIGDEICCWSFYGQGRKIAEVCCTSIVYATEKKQTKVEFPEARIYEETLNILLYEAQDGRGPDNALLEATGGAAGRSHHLDEDEERERIERVRRIHIKRPDDRAHLHQ |  |  | binding [3]: binds
KCTD15-myc-flag (protein, UniProt Q96SI1 1-283) MPHRKERPSGSSLHTHGSTGTAEGGNMSRLSLTRSPVSPLAAQGIPLPAQLTKSNAPVHIDVGGHMYTSSLATLTKYPDSRISRLFNGTEPIVLDSLKQHYFIDRDGEIFRYVLSFLRTSKLLLPDDFKDFSLLYEEARYYQLQPMVRELERWQQEQEQRRRSRACDCLVVRVTPDLGERIALSGEKALIEEVFPETGDVMCNSVNAGWNQDPTHVIRFPLNGYCRLNSVQVLERLFQRGFSVAASCGGGVDSSQFSEYVLCREERRPQPTPTAVRIKQEPLD |  |  | binding [3]: binds
KCTD14-myc-flag (protein, UniProt Q9BQ13 1-255) MWQGCAVERPVGRMTSQTPLPQSPRPRRPTMSTVVELNVGGEFHTTTLGTLRKFPGSKLAEMFSSLAKASTDAEGRFFIDRPSTYFRPILDYLRTGQVPTQHIPEVYREAQFYEIKPLVKLLEDMPQIFGEQVSRKQFLLQVPGYSENLELMVRLARAEAITARKSSVLVCLVETEEQDAYYSEVLCFLQDKKMFKSVVKFGPWKAVLDNSDLMHCLEMDIKAQGYKVFSKFYLTYPTKRNEFHFNIYSFTFTWW |  |  | binding [3]: binds
KCTD11-Nluc (protein, UniProt Q693B1 1-232) MLGAMFRAGTPMPPNLNSQGGGHYFIDRDGKAFRHILNFLRLGRLDLPRGYGETALLRAEADFYQIRPLLDALRELEASQGTPAPTAALLHADVDVSPRLVHFSARRGPHHYELSSVQVDTFRANLFCTDSECLGALRARFGVASGDRAEGSPHFHLEWAPRPVELPEVEYGRLGLQPLWTGGPGERREVVGTPSFLEEVLRVALEHGFRLDSVFPDPEDLLNSRSLRFVRH | no binding |  | 
KCNRG-myc-flag (protein, UniProt Q8N5I3 1-272) MSSQELVTLNVGGKIFTTRFSTIKQFPASRLARMLDGRDQEFKMVGGQIFVDRDGDLFSFILDFLRTHQLLLPTEFSDYLRLQREALFYELRSLVDLLNPYLLQPRPALVEVHFLSRNTQAFFRVFGSCSKTIEMLTGRITVFTEQPSAPTWNGNFFPPQMTLLPLPPQRPSYHDLVFQCGSDSTTDNQTGVRYVSIKPDNRKLANGTNVLGLLIDTLLKEGFHLVSTRTVSSEDKTECYSFERIKSPEVLITNETPKPETIIIPEQSQIKK |  |  | binding [3]: binds

The next lines start with results.

binding [1] | binding [2] | Molecule | further results
 | binds | BTBD10-myc-flag (from UniProt Q9BSF8 1-475) | 
 | binds | KCTD2-myc-flag (from UniProt Q14681 1-263) | 
 | no binding | KCTD12-myc-flag (from UniProt Q96CX2 1-325) | 
 | binds | KCTD17-myc-flag (from UniProt Q8N5Z5 1-314) | 
 | binds weakly | KCTD18-myc-flag (from UniProt Q6PI47 1-426) | 
 | binds | KCTD20-myc-flag (from UniProt Q7Z5Y7 1-419) | 
binds |  | SHKBP1-Nluc (from UniProt Q8TBC3 1-707) | 
 | binds | SHKBP1-myc-flag (from UniProt Q8TBC3 1-707) | 
no binding |  | KCTD19-Nluc (protein, UniProt Q17RG1 1-926) MEESGMAHESAEDLFHFNVGGWHFSVPRSKLSQFPDSLLWKEASALTSSESQRLFIDRDGSTFRHVHYYLYTSKLSFSSCAELNLLYEQALGLQLMPLLQTLDNLKEGKHHLRVRPADLPVAERASLNYWRTWKCISKPSEFPIKSPAFTGLHDKAPLGLMDTPLLDTEEEVHYCFLPLDLVAKYPSLVTEDNLLWLAETVALIECECSEFRFIVNFLRSQKILLPDNFSNIDVLEAEVEILEIPALTEAVRWYRMNMGGCSPTTCSPLSPGKGARTASLESVKPLYTMALGLLVKYPDSALGQLRIESTLDGSRLYITGNGVLFQHVKNWLGTCRLPLTETISEVYELCAFLDKRDITYEPIKVALKTHLEPRTLAPMDVLNEWTAEITVYSPQQIIKVYVGSHWYATTLQTLLKYPELLSNPQRVYWITYGQTLLIHGDGQMFRHILNFLRLGKLFLPSEFKEWPLFCQEVEEYHIPSLSEALAQCEAYKSWTQEKESENEEAFSIRRLHVVTEGPGSLVEFSRDTKETTAYMPVDFEDCSDRTPWNKAKGNLVRSNQMDEAEQYTRPIQVSLCRNAKRAGNPSTYSHCRGLCTNPGHWGSHPESPPKKKCTTINLTQKSETKDPPATPMQKLISLVREWDMVNCKQWEFQPLTATRSSPLEEATLQLPLGSEAASQPSTSAAWKAHSTASEKDPGPQAGAGAGAKDKGPEPTFKPYLPPKRAGTLKDWSKQRTKERESPAPEQPLPEASEVDSLGVILKVTHPPVVGSDGFCMFFEDSIIYTTEMDNLRHTTPTASPQPQEVTFLSFSLSWEEMFYAQKCHCFLADIIMDSIRQKDPKAITAKVVSLANRLWTLHISPKQFVVDLLAITGFKDDRHTQERLYSWVELTLPFARKYGRCMDLLIQRGLSRSVSYSILGKYLQED | 
binds |  | KCTD10-Nluc (protein, UniProt Q9H3F6 1-313) MEEMSGESVVSSAVPAAATRTTSFKGTSPSSKYVKLNVGGALYYTTMQTLTKQDTMLKAMFSGRMEVLTDSEGWILIDRCGKHFGTILNYLRDGAVPLPESRREIEELLAEAKYYLVQGLVEECQAALQNKDTYEPFCKVPVITSSKEEQKLIATSNKPAVKLLYNRSNNKYSYTSNSDDNMLKNIELFDKLSLRFNGRVLFIKDVIGDEICCWSFYGQGRKIAEVCCTSIVYATEKKQTKVEFPEARIYEETLNILLYEAQDGRGPDNALLEATGGAAGRSHHLDEDEERERIERVRRIHIKRPDDRAHLHQ | 
binds |  | KCNRG-Nluc (protein, UniProt Q8N5I3 1-272) MSSQELVTLNVGGKIFTTRFSTIKQFPASRLARMLDGRDQEFKMVGGQIFVDRDGDLFSFILDFLRTHQLLLPTEFSDYLRLQREALFYELRSLVDLLNPYLLQPRPALVEVHFLSRNTQAFFRVFGSCSKTIEMLTGRITVFTEQPSAPTWNGNFFPPQMTLLPLPPQRPSYHDLVFQCGSDSTTDNQTGVRYVSIKPDNRKLANGTNVLGLLIDTLLKEGFHLVSTRTVSSEDKTECYSFERIKSPEVLITNETPKPETIIIPEQSQIKK | 
